In PubChem BioAssay AID1963576 (National Center for Advancing Translational Sciences (NCATS), 2024):
In all, about 46,000 compounds went through this assay and about 60 (0.1%) were called active. Another 3% or so got no clear call; they are omitted. Calls come from the whole dose curve; as a rule, active = well fitted inhibition curve with a large enough effect; inconclusive = small, poorly fitted or top-dose-only effect; inactive = no such curve, though single readings can be large or run the other way. The list shows a part of the results.

Test: Primary qHTS assay for Inhibitors of ovarian cancer metastasis using an organotypic tumor microenvironment (TME) model.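 For activity change, negative = inhibition: plate controls were DMSO wells for no effect and tomatine positive control wells for full effect.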 Note: nearly all actives have a fitted effect of over 65% in size.
Details: SKOV3ip1-GFP adhesion/invasion on 3D omental model, fluorescence; series mostly up to 45.8 µM; activity change, negative = inhibition: at the top concentration
Summary of the method: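 qHTS, 4-pt dose (0.36-46 umol/L); SKOV3ip1-GFP, 1,200 cells/well, no FBS; primary omental fibroblast/mesothelial co-culture 48 h pre-grown; 2 h RT + 16 h 37 C; PBS wash, 4% PFA; GFP count 488/509 nm.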

Activity change, negative = inhibition, inactive:
COc1ccc(NC(=O)CSc2nc(C)cc(C)c2C(=O)Nc2ccccc2OC)cc1 5.56%, COc1ccccc1CCNC(=O)C(C)Sc1nc(-c2ccccc2)cc(C(F)(F)F)n1 (configuration not stated) 7.77%, Cc1noc(/C=C/c2ccccc2F)c1S(=O)(=O)N1CCC(C(=O)N2CCOc3ccccc32)CC1 -6.67%, COc1ccc(C)cc1NC(=O)Nc1cccc(-c2noc(C)n2)c1 11.6%, CCCOc1ccc(CNC(=O)c2[nH]c3cc(OC)ccc3c2Sc2ccccc2)cc1 0.974%, COc1ccc(Nc2ncnc3c2nc2n3CCCCC2)cc1 -5.65%, Cc1ccc(-c2cc(-c3ccccc3)c(C#N)c(SCC(O)CS(=O)(=O)Cc3ccccc3)n2)cc1 (configuration not stated) -5.75%, COc1ccc(F)cc1S(=O)(=O)Nc1cccc(-c2ccc(N3CCC(C)CC3)nn2)c1 -9.03%, CCN(C(=O)CSc1nc2ccccc2n1Cc1ccc(F)cc1Cl)c1ccccc1 6.05%, O=C1C(c2ccc(F)cc2)N(CCc2ccccc2)C(=O)CN1C1CCCCCC1 (configuration not stated) -16.2%, COc1ccc(CCNC(=O)c2c(C)oc3ncn(C)c(=O)c23)c(OC)c1 1.91%, CC(=O)Nc1ccc(N(C(=O)Cn2nnc3ccccc32)C(C(=O)NCc2ccccc2)c2ccc(C)cc2)cc1 (configuration not stated) 15.6%, CN(C)c1ccc(Nc2ncnc3sc4c(c23)CCCC4)cc1 13.1%, COc1ccc(CC(=O)NCc2nc3cccnc3n2Cc2ccccc2)cc1 10.2%, Cc1ccc(Cl)cc1NC(=O)CN1C(=O)CCc2ccccc21 1.19%, CCCCNc1oc(-c2ccc(COc3ccc(OC)cc3)o2)nc1C#N -3.22%, COc1ccc(C)cc1N(C)C(=O)CCc1nc(-c2ccccc2F)no1 -15.3%, CCOC(=O)c1c(C)[nH]c(C)c1S(=O)(=O)N1CCC(C(=O)NCc2ccccc2Cl)CC1 7.38%, Cc1cc(NC(=O)CN2CCC(C)CC2)nc2c1c(=O)oc1ccccc12 10%, O=c1c2cn[nH]c2nc(SCc2c(F)cccc2F)n1-c1ccc(Cl)cc1 9.43%, CCCCN(CC)CCCNC(=O)Cn1ncc2c([nH]c3ccc(C)cc32)c1=O -7.08%, COc1cccc(N2CCN(S(=O)(=O)c3cc(-c4cc(C)no4)ccc3C)CC2)c1 18.1%, CC(C)COc1ccc(C(=O)Nc2cc(-c3ccccc3)no2)cc1 -5.76%

outcome, inactive:
COc1ccc(C(=O)Nc2nc(-c3nnn(-c4ccc(C(C)C)cc4)c3C)ns2)cc1, CCc1ccc(NC(=O)Cn2c(=O)n(CCC(=O)NCCc3ccc(Cl)cc3)c(=O)c3ccccc32)cc1, COC(=O)c1ccccc1NC(=O)CCCn1c(=O)c2cccn2c2cccnc21, CCOC(=O)C(Cc1c[nH]c2ccccc12)NC(=O)COc1ccc(CC)cc1 (configuration not stated)
